Test results from patent US11813239B2, “Compositions and methods for improving cardiac structure and/or function” (Wisconsin Alumni Research Foundation, priority 2020, dated 2023).

Experiments:
[1] = test system: tricarboxylic acid (TCA) cycle and glucose metabolism; assay: LC-MS metabolite analysis of adult hearts; details: adult mice treated for 2 weeks with dimethyl malonate, vs saline
Procedure: To analyze intracellular metabolites, metabolites were extracted with cold liquid chromatography-mass spectrometry (LC-MS) grade 3/1 butanol/methanol (v/v). The methanol layer was transferred to a new vial and samples were dried under nitrogen flow and subsequently dissolved in LC-MS grade water for LC-MS analysis methods. Protein pellets were removed by centrifugation. Samples were analyzed using a Thermo Q-Exactive mass spectrometer coupled to a Vanquish Horizon Ultra-High Performance Liquid Chromatograph (UHPLC). Metabolites were separated on a C18 (details below) at a 0.2 ml per min flow rate and 30° C. column temperature. […] The identification of metabolites reported was based on exact m/z and retention times, which were determined with chemical standards. Data were analyzed with Maven. Relative metabolite levels were normalized to internal standard Tryptophan (^13C11) and expressed relative to levels measured in the control group.
To determine whether SDH inhibition regulates cardiomyocyte cell cycle activity by modulating succinate levels, we measured the levels of intracellular succinate by liquid chromatography-mass spectrometry (LC-MS). […]

cardiomyocytes = assay: Immunostaining (pH3, Aurora B), WGA and trichrome staining after MI in P7 mice
adult cardiomyocytes = assay: Histology after adult MI (TTC, TUNEL, pH3, Aurora B, BrdU, nucleation, γH2AX, trichrome, WGA, coronary casting, PECAM/α-SMA); assay type: in vivo, mouse; details: dimethyl malonate 100 mg/kg daily
[2] = test system: adult mouse heart following myocardial infarction; assay: Trichrome staining after adult MI, malonate treatment starting 1-week post-MI; details: malonate for 4 weeks starting 1-week post-MI, 6 weeks post-MI
Procedure: Hearts were harvested and fixed in 4% paraformaldehyde (PFA) in PBS solution overnight at 4° C., processed for paraffin embedding, and sectioned in intervals. Masson's trichrome staining was performed according to the manufacture's protocol (Newcomer Supply, Middleton, WI). Scar size measurements were quantified from at least 3 sections of the heart from ligature to apex. ImageJ was used to quantify the fibrotic scar, and the average scar area for each heart was plotted.

[3] = MI at P7, dimethyl malonate 100 mg/kg daily for 2 weeks from birth, 7 days post-MI, vs saline controls

SMILES	glucose metabolism and glycolytic intermediates (LC-MS metabolomics) [1]	tricarboxylic acid (TCA) cycle metabolites (LC-MS metabolomics) [1]	cardiomyocytes undergoing cytokinesis (Aurora B staining) (cardiomyocytes; [3])	cardiomyocytes undergoing mitosis (pH3 staining) (cardiomyocytes; [3])	cardiomyocytes undergoing mitosis (pH3 immunostaining) (adult cardiomyocytes; 7- and 14-days post-MI, vs saline controls)	cardiomyocytes undergoing cytokinesis (Aurora B staining) (adult cardiomyocytes; 7- and 14 days post-MI)	myocardial thickness and fibrosis (trichrome staining) [2]	regeneration and fibrotic scar (trichrome staining) (cardiomyocytes; MI at P7, MitoQ 10 mg/kg intraperitoneally daily for 2 weeks after birth, 21 days post-MI)
COC(=O)CC(=O)OC [Malonate, dimethyl malonate]	dynamic shift in glucose metabolism and glycolytic intermediates	marked reduction in tricarboxylic acid (TCA) cycle metabolites	significant increase in the number of cardiomyocytes undergoing cytokinesis	significant increase in the number of cardiomyocytes undergoing mitosis	significant increase in the number of cardiomyocytes undergoing mitosis	significant increase in the number of cardiomyocytes undergoing cytokinesis	remarkable increase in myocardial thickness with minimal fibrosis	–
COC1=C(OC)C(=O)C(CCCCCCCCCC[P+](c2ccccc2)(c2ccccc2)c2ccccc2)=C(C)C1=O [MitoQ]	–	–	–	–	–	–	–	smaller scar size, there was no complete myocardium regeneration and the fibrotic scar was still present
